Molecules are shown by their SMILES.

In one assay the target is LRRK2 (G2019S mutation, GST-LRRK2 (amino acids 970-2527)) (Homo sapiens, UniProt Q5S007, G2019S). Put plainly: LRRK2 Km ATP LanthaScreen Assay. The following applies: IC50 (nM), mean IC50 of several tests, fluorescein LRRKtide substrate, TR-FRET.
For `CC1(Oc2ccc3[nH]nc(-c4cc(N5CCOCC5)ncn4)c3n2)CC1` [Example O1], half-maximal inhibition (IC50) required 313 nM. On the same count and under the same terms, the value for `CC1(Oc2cc3c(-c4cc(N5CCOCC5)ncn4)n[nH]c3cn2)CC1` [Example P1] was 2.1 nM; that for `C[C@@H]1CN(c2cc(-c3n[nH]c4cnc(OC5(C)CC5)cc34)ncn2)C[C@H](C)O1` [Example P2] was 2.1 nM; that for `CC(C)Oc1cc2c(-c3cc(N4CCN(S(C)(=O)=O)CC4)ncn3)n[nH]c2cn1` [Example Q1] was 54.4 nM. Same read-out and setting: as for `CC(C)Oc1cc2c(-c3cc(N4CCN(C5CC5)CC4)ncn3)n[nH]c2cn1` [Example Q2], the figure is 29 nM; as for `CC1(Oc2cc3c(-c4ccnc(N5CCOCC5)c4)n[nH]c3cn2)CC1` [Example R1], 1.56 nM. As to `CC(C)Nc1cc2c(-c3ccnc(N4CCOCC4)c3)n[nH]c2cn1` [Example S1], the IC50 amounted to 81 nM. Same read-out and setting: the value for `c1cc(-c2n[nH]c3cnc(N4CCCC4)cc23)cc(N2CCOCC2)n1` [Example S2] was 272 nM; that for `CC1CCCN1c1cc2c(-c3ccnc(N4CCOCC4)c3)n[nH]c2cn1` (stereo not shown) [Example S3] was 121 nM. In the case of `CC(C)Oc1cc2c(-c3ccnc(N4CCCC4=O)c3)n[nH]c2cn1` [Example T1], inhibition was half-maximal at 87 nM (IC50). On the same count and under the same terms, as for `CC(C)Oc1cc2c(-c3ccnc(N4CCOC4=O)c3)n[nH]c2cn1` [Example T2], the figure is 102 nM; as for `CC(C)Oc1cc2c(-c3cc(N4CCOCC4)ncn3)n[nH]c2cn1` [Example U1], 76 nM.

The assay is the same for the next values; noted with them: LRRK2 IC50 (nM), mean IC50 of several tests, fluorescein LRRKtide substrate, TR-FRET.
`CC(C)Oc1cc2c(-c3ccnc(N4CC(n5cnnc5)C4)c3)n[nH]c2cn1` [Example J37] showed an IC50 of 100 nM.

On to `CC(C)Oc1cc2c(-c3ccnc(N4CC(O)(C(C)C)C4)c3)n[nH]c2cn1` [Example J38], for which the IC50 stood at 56 nM. Same read-out and setting: as for `CC(C)Oc1cc2c(-c3ccnc(N4CCN(c5ccncn5)CC4)c3)n[nH]c2cn1` [Example J39], the figure is 58 nM.

In turn, `COC1(C)CN(c2cc(-c3n[nH]c4cnc(OC(C)C)cc34)ccn2)C1` [Example J40] returned an IC50 of 42 nM. On the same count and under the same terms, the value for `CC(C)Oc1cc2c(-c3ccnc(N4CC[C@@H](F)C4)c3)n[nH]c2cn1` [Example J41] was 26 nM; that for `CC(C)Oc1cc2c(-c3ccnc(N4CC[C@H](F)C4)c3)n[nH]c2cn1` [Example J42] was 26 nM; that for `CC(C)Oc1cc2c(-c3ccnc(N4CCN(C5CC5)CC4)c3)n[nH]c2cn1` [Example J43] was 34 nM. The same measure, in the same setting: as for `CCS(=O)(=O)N1CCN(c2cc(-c3n[nH]c4cnc(OC(C)C)cc34)ccn2)CC1` [Example K1], the figure is 45 nM.

Regarding `CCCS(=O)(=O)N1CCN(c2cc(-c3n[nH]c4cnc(OC(C)C)cc34)ccn2)CC1` [Example K2], the IC50 worked out at 25 nM.

Consider `CC(C)Oc1cc2c(-c3ccnc(N4CCN(S(C)(=O)=O)CC4)c3)n[nH]c2cn1` [Example K3], for which the IC50 was determined as 24 nM. The same measure, in the same setting: the value for `CC(C)Oc1cc2c(-c3ccnc(N4CCN(S(=O)(=O)c5ccccc5)CC4)c3)n[nH]c2cn1` [Example K4] was 258 nM; that for `CC(C)Oc1cc2c(-c3ccnc(N4CCN(S(=O)(=O)C(C)C)CC4)c3)n[nH]c2cn1` [Example K5] was 34 nM. On the same count and under the same terms, as for `Cc1oncc1S(=O)(=O)N1CCN(c2cc(-c3n[nH]c4cnc(OC(C)C)cc34)ccn2)CC1` [Example K6], the figure is 34 nM; as for `CC(C)Oc1cc2c(-c3ccnc(N4CCN(S(=O)(=O)c5cccnc5)CC4)c3)n[nH]c2cn1` [Example K7], 95 nM; as for `CC(C)Oc1cc2c(-c3ccnc(N4CCN(S(=O)(=O)Cc5ccccn5)CC4)c3)n[nH]c2cn1` [Example K8], 32 nM. `CC(C)Oc1cc2c(-c3ccnc(N4CCN(S(=O)(=O)Cc5ccncc5)CC4)c3)n[nH]c2cn1` [Example K9] displayed an IC50 of 40 nM. Same read-out and setting: the value for `CC(C)Oc1cc2c(-c3ccnc(N4CCN(S(=O)(=O)Cc5cccnc5)CC4)c3)n[nH]c2cn1` [Example K10] was 43 nM. Regarding `CC(C)Oc1cc2c(-c3ccnc(N4CCN(S(=O)(=O)C(F)F)CC4)c3)n[nH]c2cn1` [Example K11], the IC50 was found to be 152 nM. Compound `CC(C)Oc1cc2c(-c3ccnc(N4CCN(S(=O)(=O)C5CC5)CC4)c3)n[nH]c2cn1` [Example K12] returned an IC50 of 45 nM. Still for that read-out and setting: the value for `COc1cnc(C(=O)N2CCN(c3cc(-c4n[nH]c5cnc(OC(C)C)cc45)ccn3)CC2)cn1` [Example L2] was 45 nM; that for `COCC(=O)N1CCN(c2cc(-c3n[nH]c4cnc(OC(C)C)cc34)ccn2)CC1` [Example L3] was 65 nM. On the same count and under the same terms, the value for `CC(C)Oc1cc2c(-c3ccnc(N4CCN(C(=O)c5ccccn5)CC4)c3)n[nH]c2cn1` [Example L4] was 57 nM; that for `CC(C)Oc1cc2c(-c3ccnc(N4CCN(C(=O)C(F)F)CC4)c3)n[nH]c2cn1` [Example L5] was 85.9 nM. `CC(C)Oc1cc2c(-c3ccnc(N4CCN(C(=O)C5(C)COC5)CC4)c3)n[nH]c2cn1` [Example L6]: the IC50 was 114 nM. Same read-out and setting: the value for `Cc1ccn(CC(=O)N2CCN(c3cc(-c4n[nH]c5cnc(OC(C)C)cc45)ccn3)CC2)n1` [Example L7] was 61.4 nM; that for `CC(C)Oc1cc2c(-c3ccnc(N4CCN(C(=O)CN5CCOC5=O)CC4)c3)n[nH]c2cn1` [Example L8] was 66.1 nM. With `CC(C)Oc1cc2c(-c3ccnc(N4CCN(C(=O)C5COCCO5)CC4)c3)n[nH]c2cn1` (stereo not shown) [Example L9], the IC50 amounted to 76.3 nM. The same measure, in the same setting: as for `CC(C)Oc1cc2c(-c3ccnc(N4CCN(C(=O)c5cnco5)CC4)c3)n[nH]c2cn1` [Example L10], the figure is 63.4 nM; as for `CC(C)Oc1cc2c(-c3ccnc(N4CCN(C(=O)C5CCCN5C)CC4)c3)n[nH]c2cn1` (stereo not shown) [Example L11], 42.5 nM; as for `CC(C)CCN1CCN(c2cc(-c3n[nH]c4cnc(OC(C)C)cc34)ccn2)CC1` [Example M1], 111 nM. For `CC(C)CN1CCN(c2cc(-c3n[nH]c4cnc(OC(C)C)cc34)ccn2)CC1` [Example M2], the IC50 amounted to 65 nM. `CCC(C)CN1CCN(c2cc(-c3n[nH]c4cnc(OC(C)C)cc34)ccn2)CC1` (stereo not shown) [Example M3] showed an IC50 of 238 nM. As to `CC(C)Oc1cc2c(-c3ccnc(N4CCN(Cc5ccncc5)CC4)c3)n[nH]c2cn1` [Example M4], the IC50 came out at 26 nM. With `CC(C)Oc1cc2c(-c3ccnc(N4CCN(Cc5cccc(C#N)c5)CC4)c3)n[nH]c2cn1` [Example M5], the IC50 came to 88 nM. Still for that read-out and setting: the value for `CC(C)Oc1cc2c(-c3ccnc(N4CCN(CC5CCOC5)CC4)c3)n[nH]c2cn1` (stereo not shown) [Example M6] was 30 nM; that for `CC(C)Oc1cc2c(-c3ccnc(N4CCN(Cc5cnn6ccccc56)CC4)c3)n[nH]c2cn1` [Example M7] was 27 nM. The compound `COC1CC(CN2CCN(c3cc(-c4n[nH]c5cnc(OC(C)C)cc45)ccn3)CC2)C1` (stereo not shown) [Example M8] registered an IC50 of 30 nM. The same measure, in the same setting: as for `CC(C)Oc1cc2c(-c3cc(N4CCC(O)CC4)ncn3)n[nH]c2cn1` [Example N1], the figure is 43 nM. Still for that read-out and setting: the value for `CC(C)Oc1cc2c(-c3cc(N4CCCCC4)ncn3)n[nH]c2cn1` [Example N3] was 32 nM; that for `CC(C)Oc1cc2c(-c3cc(N4CCC4)ncn3)n[nH]c2cn1` [Example N4] was 69 nM. In turn, `CC(C)Oc1cc2c(-c3cc(N4CCN(C)CC4)ncn3)n[nH]c2cn1` [Example N5] had an IC50 of 61 nM. Compound `CC(C)Oc1cc2c(-c3cc(N4C[C@@H](C)O[C@@H](C)C4)ncn3)n[nH]c2cn1` [Example N6] displayed an IC50 of 30 nM. Consider `CC(C)Oc1cc2c(-c3cc(N(C)Cc4cccnc4)ncn3)n[nH]c2cn1` [Example N7], for which the IC50 turned out to be 180 nM. `COCCN(C)c1cc(-c2n[nH]c3cnc(OC(C)C)cc23)ncn1` [Example N8]: the IC50 came to 223 nM. Same read-out and setting: the value for `CC(C)Oc1cc2c(-c3cc(N4CC(S(C)(=O)=O)C4)ncn3)n[nH]c2cn1` [Example N9] was 65 nM; that for `CC(C)Oc1cc2c(-c3cc(N4C[C@H](O)[C@@H](N(C)C)C4)ncn3)n[nH]c2cn1` [Example N10] was 69 nM. `CO[C@H]1CN(c2cc(-c3n[nH]c4cnc(OC(C)C)cc34)ncn2)C[C@@H]1O` [Example N11] had an IC50 of 150 nM.

`CC(C)Oc1cc2c(-c3cc(N4CCO[C@H](C)C4)ncn3)n[nH]c2cn1` [Example N12]: the IC50 was 32 nM. Take `CC(C)Oc1cc2c(-c3cc(N4CCO[C@@H](C)C4)ncn3)n[nH]c2cn1` [Example N13]: inhibition was half-maximal at 62 nM (IC50). On the same count and under the same terms, the value for `CC(C)Oc1cc2c(-c3cc(N4CCC(n5cncn5)CC4)ncn3)n[nH]c2cn1` [Example N14] was 41 nM. The same measure, in the same setting: the value for `CC(C)Oc1cc2c(-c3cc(N4CCC[S+]([O-])CC4)ncn3)n[nH]c2cn1` (stereo not shown) [Example N15] was 1260 nM; that for `CC(C)Oc1cc2c(-c3cc(N4CC[S+]([O-])CC4)ncn3)n[nH]c2cn1` [Example N17] was 129 nM. Same read-out and setting: the value for `CC(C)Oc1cc2c(-c3cc(N4CCC(F)(F)CC4)ncn3)n[nH]c2cn1` [Example N18] was 71 nM.

`CC(C)Oc1cc2c(-c3cc(N4CC(F)(F)C4)ncn3)n[nH]c2cn1` [Example N19] gave a half-maximal inhibitory concentration (IC50) of 111 nM. Same read-out and setting: the value for `CC(C)Oc1cc2c(-c3cc(N4CC(n5cnnc5)C4)ncn3)n[nH]c2cn1` [Example N20] was 201 nM. Same read-out and setting: the value for `CC(C)Oc1cc2c(-c3cc(N4CCN(c5ccncn5)CC4)ncn3)n[nH]c2cn1` [Example N21] was 69 nM; that for `CO[C@H]1CCN(c2cc(-c3n[nH]c4cnc(OC(C)C)cc34)ncn2)C1` [Example N22] was 95 nM. With `CC(C)Oc1cc2c(-c3cc(N4CCCC4)ncn3)n[nH]c2cn1` [Example N23], the IC50 stood at 102 nM. The same measure, in the same setting: as for `COC(C)CN(C)c1cc(-c2n[nH]c3cnc(OC(C)C)cc23)ncn1` (stereo not shown) [Example N24], the figure is 62 nM; as for `CC(C)Oc1cc2c(-c3cc(N4CC[C@@H](F)C4)ncn3)n[nH]c2cn1` [Example N25], 365 nM; as for `CC(C)Oc1cc2c(-c3cc(N4CC[C@H](F)C4)ncn3)n[nH]c2cn1` [Example N26], 34 nM.

For the origin of these results see patent publication US9718818B2, “Compounds inhibiting leucine-rich repeat kinase enzyme activity” (MERCK SHARP & DOHME CORP., priority 2013, dated 2017).
